Measurements as given in publication PMC12136788.
This is one part of the list.

T1: UNK ZnF1-3 (human, UniProt Q9C0B0 31-174)
T1 sequence: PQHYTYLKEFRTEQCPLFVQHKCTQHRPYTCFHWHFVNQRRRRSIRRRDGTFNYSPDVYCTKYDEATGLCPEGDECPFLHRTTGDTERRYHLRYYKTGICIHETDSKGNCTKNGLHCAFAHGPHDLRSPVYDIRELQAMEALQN

B1: chr12:66249844:66249845:-_ENSMUSG00000047534_ENSMUST00000052201|mus_mus|FALSE|FALSE (ssRNA)
RNA: GGGAGUUCUACAGUCCGACGAUCUAACAGCUGUCUGCUAGUUCUAUCAGAUGCCUUUCCUUCAGUGAGAAAGUCCUUGCUAACAGCAGAUUUGUAAUGUGACUCUUUAGCAGAAGAUCGAGGUCUCUUUGGUGUGAUAUAACACAACAGAGGAUUGAGCAUCA
B2: chr3:176767854:176767855:-_ENSG00000177565_ENST00000430069|hu_hu|hu_hu_hu_mus_False|28_68 (ssRNA)
RNA: GGGAGUUCUACAGUCCGACGAUCGACAUCCUUGUUACUGGGCACGUCCUGCCCUCCUUCCCGUAUGCAAUGUCUAAGCACGAGCUGCGUAGGGCCACUCGUGCUGUUCUCACUAAGGUUCCAGAUUCUUGCCGUGGAGUCUCCCAACAGAGGAUUGAGCAUCA
B3: 103876369_103876489_536_5pUTR_ENSG00000155096_ENST00000337198|human|control|control (ssRNA)
RNA: GGGAGUUCUACAGUCCGACGAUCCGCGAUCAGAGCCUGAAAGUGUGAGAAGGCGGCGCCAGCGACGCCAGUAUUUAUAUUAGGGGGCGUGGCCUGGUGACAUCACAGCUGGCCGGGCAGCCGCGCGAGCGGGGCGGAACCCGGCAACAGAGGAUUGAGCAUCA
B4: chr7:99593754:99593755:+_ENSMUSG00000052572_ENSMUST00000098308|mus_mus|FALSE|FALSE (ssRNA)
RNA: GGGAGUUCUACAGUCCGACGAUCCUUUAGUGCCUUCUUUCAGCUUAUAAAUGGCAAAAUAGACAAUUGACAGCCAUAAAGCUAGGCCAGGUGGAAUCUCCUCCUCUCUAAGGUUAGUCCUCCACACAGGACACACUUGUCUUUCAACAGAGGAUUGAGCAUCA
B5: chr2:136607347:136607348:+_ENSMUSG00000027273_ENSMUST00000028727|mus_mus|FALSE|FALSE (ssRNA)
RNA: GGGAGUUCUACAGUCCGACGAUCGAAUAGCCAUGAGGAACCAAAGACAGCACAUUUGGAGAGAUUCAGAGCCUGACACCCUAAGAAAGGAUUGUGGCAGUAGCUCUGUGGAAUGUCACAGUUUUACAAGAACAAUACUGUGUACAACAGAGGAUUGAGCAUCA
B6: chr3:133011071:133011072:+_ENSMUSG00000028013_ENSMUST00000029644|mus_mus|motif|central (ssRNA)
RNA: GGGAGUUCUACAGUCCGACGAUCCAAAGUCCCAAGGAUCUUCACAUGGACCACGUCUCCACGGGAAAGAACCUUUGAGCCGGUUUCACAGACGUCAAUGGGAUCAUUAUCCCCACAGCAGUCGGUGCUCUUAUCUCUUAGGUGCAACAGAGGAUUGAGCAUCA
B7: chr7:149068622:149068623:-_ENSMUSG00000025139_ENSMUST00000001950|mus_hu|mus_mus_mus_hu_False|38_108 (ssRNA)
RNA: GGGAGUUCUACAGUCCGACGAUCGUGCAGGUACUGAGUGUGGCUUGUGGUCUGUCCUGGGUUAGAGUUGUUAAUAUCACGGAACAUACCAUCUAGAGAGGUUCUGCCCCGCCUGACACCUUCAUUCCCAAUGGAGAAGAAAUCCAACAGAGGAUUGAGCAUCA
B8: 85908490_85909826_741_3pUTR_ENSG00000165678_ENST00000372134|human|control|control (ssRNA)
RNA: GGGAGUUCUACAGUCCGACGAUCACUGCACCCAUCACACCAGAAUGUAGCAACCAAGCAAGAUGCUUUGGGCCUGGGCUCUGGUCAUAUGGUAUUGAUCGUACCAGCAUUCCAGCUCCAACCAUGGCUGCAAAGGUCACACCACAACAGAGGAUUGAGCAUCA
B9: chr4:107013644:107013645:+_ENSMUSG00000057375_ENSMUST00000075693|mus_hu|FALSE|FALSE (ssRNA)
RNA: GGGAGUUCUACAGUCCGACGAUCCACAUAAUGGUACGUCUUCUCUCCCAGAUGGAUCAAGAAGUUGGAAAGAUUCCCACUAAUUGCUAUGGCAAAGACCAACGUGGCACAUAUCCAAAAGGGGCCAUAGAGAUCUGGAUUGCUCAACAGAGGAUUGAGCAUCA
B10: 82904206_82904326_3817_CDS_ENSG00000005700_ENST00000306270|human|control|control (ssRNA)
RNA: GGGAGUUCUACAGUCCGACGAUCAGCAACCCAACUGGCAGAGCUGGUAGUAUCAAUUCUGUUACUGGGAAUAGGCUGUGGAGCAGAUAUUUUAAGUAUUGGUGACUUUUCCCAUGGUUUUAAAUCUUCCCUAGAAUACACAGGCAACAGAGGAUUGAGCAUCA
B11: chr17:65337135:65337136:-_ENSG00000197170_ENST00000584008|hu_hu|FALSE|FALSE (ssRNA)
RNA: GGGAGUUCUACAGUCCGACGAUCUCUGGAAGUUGAUAAUUCCUGCUAAUCUGUCUACUUUAGCAAAGAUGGUCUUGUUAACUACUAGAUUUGAGAGAAAGGCUUCGGACUCAUCAACAGAUAGAUCCAGAAGCUGUGCCAUCCCAACAGAGGAUUGAGCAUCA
B12: chr19:8913615:8913616:-_ENSMUSG00000071658_ENSMUST00000096259|mus_hu|mus_mus_mus_hu_False|8_58 (ssRNA)
RNA: GGGAGUUCUACAGUCCGACGAUCAGGGUACCAAAACCUUCUGCCUGAAAUGGGUGCCCCACCCAGUAGGGAGUUGCAGCUAAAAAUAUCUGAUGCAGAAGCAGUGACUAUACGAAAGGAGGCCCCUGAUGCUCAGAAGGCCAGCAACAGAGGAUUGAGCAUCA
B13: chr7:140710375:140710376:-_ENSG00000090263_ENST00000324787|hu_mus|FALSE|FALSE (ssRNA)
RNA: GGGAGUUCUACAGUCCGACGAUCGUUGUGAUUUGGAUACCAGUCAUAAGUCUCUUUCUUCUUGGCCAAGGGCUGCUCGCUAAACAGGCUCACCACUUUCAUGGACUUUGAGUCAGUAGACCUGGCCACUUCACCAAAGAUCCGCAACAGAGGAUUGAGCAUCA
B14: chr1:152005216:152005217:-_ENSG00000163191_ENST00000271638|hu_hu|FALSE|FALSE (ssRNA)
RNA: GGGAGUUCUACAGUCCGACGAUCUCAGGUCCGCUUCUGGGAAGGGACAGCCUUGAGGAAGGAGUCAUGGCAAGCCAUAGCUAGGCCACCAAUCAGAUUAAGAAAUUCUGAGAAAUCUAGCUGACCAUCACUGUUGGUGUCCAGCAACAGAGGAUUGAGCAUCA
B15: 86998487_86999883_1873_CDS_ENSMUSG00000018548_ENSMUST00000041282|mouse|control|control (ssRNA)
RNA: GGGAGUUCUACAGUCCGACGAUCAUGAUGAUAGUCUUCAUUCUGAAUCUUCUCCUCCUCAUCUUCAUCUUCCUUGGUCUCUCGUACAGAAGCGCAAGUAGGACCGCCUUCCAGAAGCAUGUCAGAGCAUGACCCAGCUUUCUUCAACAGAGGAUUGAGCAUCA
B16: 57333804_57335832_82_CDS_ENSG00000174780_ENST00000510663|human|control|control (ssRNA)
RNA: GGGAGUUCUACAGUCCGACGAUCGUUGAUCUGUAGUAUCUUAUUGACGGUCUUGAGAGCGCGCGUGAAGUCGCCGUUCUGGCCAUACCGGUUCACUUCACUCCACAGCGCAGGUACUGACACCCCCCCGCUGCCGCCGCUCGCCAACAGAGGAUUGAGCAUCA
B17: chr11:46405157:46405158:+_ENSG00000110492_ENST00000395566|hu_hu|hu_hu_hu_mus_False|8_48 (ssRNA)
RNA: GGGAGUUCUACAGUCCGACGAUCCCCUCCCCACUUUGGGCACUUGGUGUGGGCGUGAGAGGACAGGCGUGAUUGACAGAGCUGACAAGCAGACAGAAGGCACUGGUGGGUUAUAUCUUGGGCCUGUGAGAGGGAGGGGCUCCGCAACAGAGGAUUGAGCAUCA
B18: chr14:39627603:39627604:-_ENSG00000182400_ENST00000330149|hu_hu|motif|central (ssRNA)
RNA: GGGAGUUCUACAGUCCGACGAUCGAACUUCAUGAUAUCUAACUCAUCCUUGAACCUUGCAGUAUCUUUUGUAAACCUUUCGGUCAAUCCUUGUCCCACUCGAAACCCCAUGUUUUCCAGCUUAGUAAUACAUCGUCCGUUUUCCAACAGAGGAUUGAGCAUCA
B19: chr2:216981417:216981418:+_ENSG00000079246_ENST00000392132|hu_hu|hu_hu_hu_mus_True|58_108 (ssRNA)
RNA: GGGAGUUCUACAGUCCGACGAUCCUGAUACUGAUCCUUGCCAGCAAGGGCAUUAUCAGUGCCAUCUGUGCCAUAGAGGACUAAAGCAAUCUCAUCUUUGCUCUCCGAAAAUACCUGUCGUUGGACAAACAUAGUCAUCACUUUCAACAGAGGAUUGAGCAUCA
B20: chr3:150289932:150289933:+_ENSG00000144895_ENST00000460851|hu_hu|hu_hu_hu_mus_False|28_78 (ssRNA)
RNA: GGGAGUUCUACAGUCCGACGAUCCUUGUAGUUUUUAACAUCCCAUACUUCCAUUUGUCCCCUCAGAUUUCCAAAUCCAGCCAGCACUAAUAUAUGUCCAUGAGGGCUAUAGUAGGCUGCGUUGCGAGGACCAGUCCCAAAGUCCAACAGAGGAUUGAGCAUCA
B21: chr9:95013113:95013114:-_ENSG00000196305_ENST00000443024|hu_hu|hu_hu_hu_mus_False|78_108 (ssRNA)
RNA: GGGAGUUCUACAGUCCGACGAUCCUCAGUGAGAAAAGGCGUGUAAGGGGCCAUCAGUCUGCAAAGAGAAAGCAGGACACUGAACAGUGUCUCCAGAGCCAUGACACAGUCUUCCACCCCACUCUCACCCUUUAACCUCCUCCUCAACAGAGGAUUGAGCAUCA
B22: chr17:32491890:32491891:-_ENSMUSG00000024050_ENSMUST00000163107|mus_hu|FALSE|FALSE (ssRNA)
RNA: GGGAGUUCUACAGUCCGACGAUCGGCCCCCAAGGGGCGCCGGUUUGAGGUUUUGGCUUGCUCCUUUGGAAACGGAAAGAAAGAGGAAGAGGGACAAGGACACAGAGGAGGAAGAAGAGGAGACAGAGGUGGCACGAGAGGGGACAACAGAGGAUUGAGCAUCA

target: T1, UNK ZnF1-3; experiment: nsRBNS (natural sequence RNA bind-n-seq); RBNS binding buffer (assumed for nsRBNS): 25 mM Tris pH 7.5, 150 mM KCl, 3 mM MgCl2, 0.01% Triton X-100, 500 ug/ml BSA, 20 U/ml SUPERase-In, 4 C; UNK is unkempt and MSI1 is Musashi-1; names of the RNAs are library labels; protein concentration not given here; high values mean tight binding

Compared with B1, B2 is lower in binding signal: 1.03 enrichment R for the first, 0.466 enrichment R for the second.

Compared with B3, B4 is lower in binding signal: 1.59 enrichment R for the first, 0.869 enrichment R for the second.

Compared with B5, B6 is lower in binding signal: 1.71 enrichment R for the first, 0.797 enrichment R for the second.

Going from B7 to B8, the binding signal rises from 0.927 enrichment R to 1.09 enrichment R.

Going from B9 to B10, the binding signal rises from 1.25 enrichment R to 2.14 enrichment R.

Going from B11 to B12, the binding signal falls from 1.03 enrichment R to 1.01 enrichment R.

First: B13
Second: B14
The binding signal of the first is lower: 0.39 enrichment R for the first, 1.22 enrichment R for the second.

Compared with B15, B16 is lower in binding signal: 0.94 enrichment R for the first, 0.252 enrichment R for the second.

Going from B17 to B18, the binding signal falls from 2.88 enrichment R to 0.595 enrichment R.

Going from B19 to B20, the binding signal rises from 0.717 enrichment R to 1.02 enrichment R.

Compared with B21, B22 is higher in binding signal: 1.41 enrichment R for the first, 2.87 enrichment R for the second.
